Test results: the supplement of paper PMC8728848
The list shows a part of the results.

Columns and labels:
Assay in all cases: glycan array binding signal (z-score within array); higher = stronger binding
Conditions in all cases: glycan notation: IUPAC condensed, linker removed
[1] = target: Fuc(a1-3)[Gal3S(b1-4)]Glc
Method in brief: (§1)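 Columns mapping to the same glycan were averaged after glycan names were converted to IUPAC-condensed notation. The data come from 3228 arrays in the Consortium for Functional Glycomics database, limited to those with an available protein sequence. Binding is reported as a within-array Z-score averaged across arrays of one protein sequence and across linkers.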

[2] = target: Fuc(a1-3)[Gal3S(b1-4)]Glc6S
Method in brief: as §1

[3] = target: Fuc(a1-3)[Gal3S(b1-4)]GlcNAc
Method in brief: as §1

[4] = target: Fuc(a1-3)[Gal3S(b1-4)]GlcNAc6S
Method in brief: as §1

[5] = target: Fuc(a1-3)[GalNAc(b1-4)]Gal(b1-4)GlcNAc
Method in brief: as §1

[6] = target: Fuc(a1-3)[GalNAc(b1-4)]GlcNAc
Method in brief: as §1

[7] = target: Fuc(a1-3)[GalNAc(b1-4)]GlcNAc6S
Method in brief: as §1

[8] = target: Fuc(a1-4)GlcNAc
Method in brief: as §1

[9] = target: Fuc(b1-3)GlcNAc
Method in brief: as §1

[10] = target: Gal(a1-2)Gal
Method in brief: as §1

[11] = target: Gal(a1-3)Gal
Method in brief: as §1

[12] = target: Gal(a1-3)Gal(b1-3)Glc
Method in brief: as §1

[13] = target: Gal(a1-3)Gal(b1-3)GlcNAc
Method in brief: as §1

[14] = target: Gal(a1-3)Gal(b1-3)GlcNAc(b1-2)Man
Method in brief: as §1

[15] = target: Gal(a1-3)Gal(b1-3)GlcNAc(b1-2)Man(a1-3)[Gal(a1-3)Gal(b1-3)GlcNAc(b1-2)Man(a1-6)]Man(b1-4)GlcNAc(b1-4)GlcNAc
Method in brief: as §1

[16] = target: Gal(a1-3)Gal(b1-3)GlcNAc(b1-3)GalNAc
Method in brief: as §1

[17] = target: Gal(a1-3)Gal(b1-3)GlcNAc(b1-6)GalNAc
Method in brief: as §1

[18] = target: Gal(a1-3)Gal(b1-3)[Fuc(a1-4)]GlcNAc(b1-2)Man(a1-3)[Gal(a1-3)Gal(b1-3)[Fuc(a1-4)]GlcNAc(b1-2)Man(a1-6)]Man(b1-4)GlcNAc(b1-4)GlcNAc
Method in brief: as §1

[19] = target: Gal(a1-3)Gal(b1-4)Glc
Method in brief: as §1

[20] = target: Gal(a1-3)Gal(b1-4)GlcNAc
Method in brief: as §1

[21] = target: Gal(a1-3)Gal(b1-4)GlcNAc(b1-2)Man
Method in brief: as §1

[22] = target: Gal(a1-3)Gal(b1-4)GlcNAc(b1-2)Man(a1-3)[Gal(a1-3)Gal(b1-4)GlcNAc(b1-2)Man(a1-6)]Man(b1-4)GlcNAc(b1-4)GlcNAc
Method in brief: as §1

[23] = target: Gal(a1-3)Gal(b1-4)GlcNAc(b1-3)GalNAc
Method in brief: as §1

[24] = target: Gal(a1-3)Gal(b1-4)GlcNAc(b1-6)GalNAc
Method in brief: as §1

[25] = target: Gal(a1-3)Gal(b1-4)[Fuc(a1-3)]GalNAc
Method in brief: as §1

[26] = target: Gal(a1-3)Gal(b1-4)[Fuc(a1-3)]GlcNAc
Method in brief: as §1

[27] = target: Gal(a1-3)Gal(b1-4)[Fuc(a1-3)]GlcNAc(b1-2)Man(a1-3)[Gal(a1-3)Gal(b1-4)[Fuc(a1-3)]GlcNAc(b1-2)Man(a1-6)]Man(b1-4)GlcNAc(b1-4)GlcNAc
Method in brief: as §1

[28] = target: Gal(a1-3)GalNAc
Method in brief: as §1

[29] = target: Gal(a1-3)GlcNAc
Method in brief: as §1

[30] = target: Gal(a1-3)[Gal(a1-4)]Gal(b1-4)GlcNAc
Method in brief: as §1

[31] = target: Gal(a1-4)Gal(b1-3)GlcNAc(b1-2)Man(a1-3)[Gal(a1-4)Gal(b1-3)GlcNAc(b1-2)Man(a1-6)]Man(b1-4)GlcNAc(b1-4)GlcNAc
Method in brief: as §1

[32] = target: Gal(a1-4)Gal(b1-4)Gal
Method in brief: as §1

[33] = target: Gal(a1-4)Gal(b1-4)GalNAc
Method in brief: as §1

[34] = target: Gal(a1-4)Gal(b1-4)Glc
Method in brief: as §1

[35] = target: Gal(a1-4)Gal(b1-4)GlcNAc
Method in brief: as §1

[36] = target: Gal(a1-4)Gal(b1-4)GlcNAc(b1-2)Man(a1-3)[Gal(a1-4)Gal(b1-4)GlcNAc(b1-2)Man(a1-6)]Man(b1-4)GlcNAc(b1-4)GlcNAc
Method in brief: as §1

[37] = target: Gal(a1-4)Gal(b1-4)GlcNAc(b1-3)Gal(b1-4)Glc
Method in brief: as §1

[38] = target: Gal(a1-4)GlcNAc
Method in brief: as §1

B1: EEA (Euonymus europaeus) (protein)
chain: MASTIIATGPTYRVYCRAAPNYNMIVGKGVAFLAPIDETNELQYWYKDDTYSYIKDEAGLPAFSLVNKATGLTLKHSNHHPVPVKLVTYNPNVVDESVLWSQADDRGDGYSAIRSLTNPASHLEAAPLNDWSYNGAIIMGGVWIDAYNQQWKIEPHTG
Which “glycan array binding signal (z-score)” value [1] does the source give for B1 here?
Its value is -0.163.

What about the “glycan array binding signal (z-score)” value [2] of the same binder?
Its value is -0.263.

What about the “glycan array binding signal (z-score)” value [3] of the same binder?
The value was -0.14.

And the “glycan array binding signal (z-score)” value [4]?
Its value is -0.209.

What about the “glycan array binding signal (z-score)” value [5] of the same binder?
Its value is -0.054.

And the “glycan array binding signal (z-score)” value [6]?
Its value is -0.088.

And the “glycan array binding signal (z-score)” value [7]?
Its value is -0.254.

And the “glycan array binding signal (z-score)” value [8]?
Its value is -0.292.

What about the “glycan array binding signal (z-score)” value [9] of the same binder?
Its value is -0.156.

And the “glycan array binding signal (z-score)” value [10]?
The value was -0.242.

And the “glycan array binding signal (z-score)” value [11]?
The value was -0.176.

And the “glycan array binding signal (z-score)” value [12]?
Its value is 0.318.

And the “glycan array binding signal (z-score)” value [13]?
The value was 1.21.

What about the “glycan array binding signal (z-score)” value [14] of the same binder?
The value was 0.029.

And the “glycan array binding signal (z-score)” value [15]?
The value was -0.115.

What about the “glycan array binding signal (z-score)” value [16] of the same binder?
Its value is -0.146.

What about the “glycan array binding signal (z-score)” value [17] of the same binder?
The value was -0.22.

And the “glycan array binding signal (z-score)” value [18]?
The value was -0.071.

And the “glycan array binding signal (z-score)” value [19]?
Its value is -0.144.

What about the “glycan array binding signal (z-score)” value [20] of the same binder?
Its value is 1.01.

And the “glycan array binding signal (z-score)” value [21]?
The value was -0.024.

What about the “glycan array binding signal (z-score)” value [22] of the same binder?
Its value is 0.698.

What about the “glycan array binding signal (z-score)” value [23] of the same binder?
Its value is -0.175.

What about the “glycan array binding signal (z-score)” value [24] of the same binder?
The value was -0.194.

And the “glycan array binding signal (z-score)” value [25]?
The value was 1.68.

And the “glycan array binding signal (z-score)” value [26]?
The value was -0.184.

What about the “glycan array binding signal (z-score)” value [27] of the same binder?
Its value is 0.198.

What about the “glycan array binding signal (z-score)” value [28] of the same binder?
The value was -0.092.

And the “glycan array binding signal (z-score)” value [29]?
Its value is -0.27.

And the “glycan array binding signal (z-score)” value [30]?
The value was -0.063.

What about the “glycan array binding signal (z-score)” value [31] of the same binder?
The value was -0.238.

And the “glycan array binding signal (z-score)” value [32]?
Its value is -0.268.

What about the “glycan array binding signal (z-score)” value [33] of the same binder?
The value was -0.27.

And the “glycan array binding signal (z-score)” value [34]?
The value was -0.143.

What about the “glycan array binding signal (z-score)” value [35] of the same binder?
The value was -0.164.

What about the “glycan array binding signal (z-score)” value [36] of the same binder?
The value was -0.114.

And the “glycan array binding signal (z-score)” value [37]?
The value was -0.19.

What about the “glycan array binding signal (z-score)” value [38] of the same binder?
The value was -0.183.
